The text below walks through data of publication PMC6212790.

The list shows a part of the results. At the low end of the ranking, values are background and their order means little.

For the test, the target named is T1, GST-Rok (full length) (UniProt O34857).
T1 sequence: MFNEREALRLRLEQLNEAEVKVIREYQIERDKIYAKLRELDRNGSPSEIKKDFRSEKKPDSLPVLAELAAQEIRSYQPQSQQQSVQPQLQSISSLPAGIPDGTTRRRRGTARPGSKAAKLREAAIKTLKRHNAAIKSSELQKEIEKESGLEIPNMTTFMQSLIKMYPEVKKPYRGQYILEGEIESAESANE
Put plainly: protein binding microarray.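 Also: rank score from −0.5 (least bound) to 0.5 (best bound).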 Conditions: Rok is a gene silencer of Bacillus subtilis; high values mean tight binding; most listed sequences are background and not binding sites; double strand, one strand shown.
In turn, CCTTACTC came in with a binding signal of -0.231 E-score.

Consider ATAAACAG, for which the binding signal came out at 0.177 E-score.

Sequence CGAAAGCA gave a binding signal of -0.153 E-score. For TAGTTGCA, the binding signal is 0.318 E-score. In the case of AGCAGCGG it was -0.175 E-score; in that of GTTCCCGA, -0.27 E-score. For GGTCCACA the value was -0.132 E-score; for AAGGGTCC, -0.12 E-score; for ACGCTTAA, -0.0688 E-score. In the case of CAGCCGCG it was -0.283 E-score.

For the sequence CTGACACA, the binding signal is -0.0347 E-score. For ATTCGAGA the value was 0.15 E-score; for AGATCCAG, -0.052 E-score. The sequence CACTGACA came in with a binding signal of -0.161 E-score. For AACCGTAA the value was 0.0898 E-score; for GATAGTTA, 0.391 E-score; for ACTAGTGA, 0.172 E-score.

On to CTTACAAC, for which the binding signal was 0.14 E-score. CCGGTTTC: the binding signal was -0.0901 E-score. For CTATGCGC the value was -0.124 E-score; for CTCGAACA, 0.101 E-score. In the case of CATCAGAG it was -0.0709 E-score; in that of CGCATAAA, 0.0624 E-score; in that of GAGTAATA, 0.318 E-score. In the case of ACGTTTAA it was -0.112 E-score; in that of ATCTTGAA, 0.0196 E-score.

In the case of ACTCAATA, the binding signal was determined as 0.309 E-score.

As for TCTACTAA, the binding signal is 0.353 E-score.

In turn, TCTAGCAA showed a binding signal of 0.184 E-score.

ATTGTAGA yielded a binding signal of 0.316 E-score. In the case of ACTGTCAC it was 0.011 E-score; in that of CCAATAGG, -0.237 E-score. ATTCGATC returned a binding signal of 0.232 E-score. For GAAATCCA the value was 0.031 E-score; for AGGAACCC, -0.114 E-score. In the case of AGCTCCTA it was 0.00519 E-score; in that of GAGCAAGA, -0.164 E-score.

As for TCTATTAA, the binding signal came out at 0.215 E-score. For CGGGCGGC the value was -0.388 E-score; for AGAACTCC, -0.133 E-score; for ATAGAAGC, 0.307 E-score. For ACGAAATA the value was 0.212 E-score. Turning to AAGTTTTG, the binding signal turned out to be 0.00498 E-score. For TATGTCAA the value was 0.234 E-score.

Sequence AACATACC showed a binding signal of 0.244 E-score. In the case of AGTAAAGA it was 0.132 E-score; in that of CCATTTAG, 0.0659 E-score; in that of AACCCAGA, -0.0229 E-score. For TACCGCTA the value was 0.209 E-score; for TCAGCTGA, -0.0348 E-score; for ATCGAATC, 0.231 E-score. For TAAATAGA the value was 0.228 E-score; for CATTGGTC, -0.0292 E-score; for CAGTCGCA, -0.0605 E-score. Sequence CCCGTGCC returned a binding signal of -0.332 E-score. In the case of GACTCCTA it was 0.0242 E-score. In the case of TAGATAGA, the binding signal is 0.318 E-score. For CCAGCCAG the value was -0.269 E-score; for ATATTGCA, 0.204 E-score; for ACAGATTG, 0.104 E-score. In the case of GCATTCGC it was -0.0919 E-score; in that of GGCTCGTA, -0.244 E-score.

GAATGACC returned a binding signal of -0.216 E-score.

For ATTGCCGG, the binding signal is -0.0899 E-score. AGCATTAG had a binding signal of 0.15 E-score.

Sequence CTTACTGA gave a binding signal of 0.208 E-score.

Take AAACAGCC: the binding signal was -0.181 E-score.

The sequence GCAATCAC had a binding signal of -0.0379 E-score. Sequence AGTTTGAA registered a binding signal of 0.091 E-score. Regarding ACAAGCCA, the binding signal is -0.181 E-score. The sequence AATCCTAC had a binding signal of 0.257 E-score. For CTGACTTC the value was -0.0847 E-score; for CTTATGCA, 0.116 E-score. In the case of AACGCTAA it was 0.174 E-score; in that of GGTCAATA, 0.0981 E-score.

In the case of GTGGTCCA, the binding signal is -0.173 E-score. For ACATGGGT the value was 0.0268 E-score; for ACAGACGT, 0.0146 E-score; for CACGTAAG, 0.0075 E-score. In the case of ATTCTACG it was 0.18 E-score; in that of CTTCAATA, 0.0452 E-score; in that of ATTCGTTC, 0.0279 E-score. For AGTATTGG the value was -0.051 E-score; for TCATCAAA, -0.0807 E-score; for CGGACTAC, -0.0835 E-score.

As for AAACCACG, the binding signal worked out at 0.054 E-score. In the case of CGGGATTC it was -0.0829 E-score; in that of GTTCCATA, -0.00825 E-score. Turning to AGACTATA, the binding signal was determined as 0.286 E-score. As to GCACTCCA, the binding signal was -0.231 E-score. For AGGCGGCG the value was -0.178 E-score; for CATTGGGG, -0.333 E-score. As to AGGCGGAT, the binding signal was -0.239 E-score.

In turn, AGTCTTAA came in with a binding signal of -0.106 E-score. On to ACAAACAT, for which the binding signal turned out to be 0.269 E-score.

Consider TCTAGTAA, for which the binding signal turned out to be 0.351 E-score. Sequence AACGGCCC displayed a binding signal of -0.15 E-score. For ATGAGAGG the value was -0.154 E-score; for GTCTCAGA, -0.101 E-score.

The sequence CACATCTG returned a binding signal of -0.0365 E-score. In the case of TACCGTAA it was 0.223 E-score; in that of AGTCCACT, -0.151 E-score. In the case of CCGGCTAG it was -0.0804 E-score.

AGATGGAG returned a binding signal of -0.113 E-score. For GGATTTCA the value was 0.0535 E-score; for GTACTAAA, 0.241 E-score; for GTTTCGAA, 0.146 E-score. For AAGCAATT the value was 0.274 E-score; for AGCTGTCG, -0.0533 E-score.

For AAGCCAGT, the binding signal was -0.178 E-score.

Regarding ATGGACGA, the binding signal was -0.158 E-score. For ATGCATGC the value was -0.138 E-score; for CCTTCCAG, -0.191 E-score. In the case of ACCCGTTA it was 0.0593 E-score; in that of GCCATTGA, -0.105 E-score; in that of CTCGCGAA, -0.00276 E-score. For GACAATCA the value was 0.078 E-score; for GACAGCTA, -0.0314 E-score; for AGGGGCAT, -0.109 E-score. Turning to CGAGGATC, the binding signal is 0.048 E-score.

As for CGCTTCTC, the binding signal was 0.0455 E-score.

As for ATCTACCA, the binding signal stood at 0.48 E-score. For CAATTAGG the value was -0.146 E-score.

Consider ATCTGCCC, for which the binding signal was -0.298 E-score.

Turning to CATGCAAC, the binding signal worked out at 0.077 E-score. In the case of CGACAAAG it was -0.254 E-score; in that of AAAACTTA, 0.232 E-score. ATACACCA displayed a binding signal of 0.19 E-score. For CTATATGC the value was 0.185 E-score; for ACACCAAC, -0.0562 E-score; for GTATGCAA, -0.066 E-score. For ACAGCCTC the value was -0.236 E-score; for AGACATCC, -0.21 E-score; for CGGCGATC, -0.131 E-score. In the case of CACGTGGC it was -0.305 E-score; in that of ATTTCCCG, 0.0149 E-score; in that of CCATGTCC, 0.11 E-score.

Take ATACGCGC: the binding signal came to 0.119 E-score. Sequence GGATTCGA registered a binding signal of 0.0409 E-score. For AGCAAAAT the value was 0.272 E-score. For ACCGAGGC the value was -0.186 E-score. For CGCTTTTA the value was -0.112 E-score.

CGAAAGCG had a binding signal of -0.287 E-score. Consider CAACCATC, for which the binding signal is -0.0661 E-score.

For ATCCGAAC, the binding signal is -0.133 E-score. As to ACCCGACC, the binding signal is -0.271 E-score.

As for ACTCCTTA, the binding signal is -0.118 E-score. Consider CGAGGGCA, for which the binding signal is -0.318 E-score. For GAGTCGTA the value was 0.0305 E-score; for AATATCAT, 0.233 E-score. In the case of CCGAACTC, the binding signal amounted to 0.0171 E-score.

On to CCGTGTGC, for which the binding signal was -0.0528 E-score. In the case of ACAGGACC it was -0.0993 E-score; in that of ATCGCCAC, -0.0751 E-score; in that of GATGGCGC, -0.152 E-score. CCCTTCGG showed a binding signal of -0.39 E-score. For GCCTACTA the value was 0.0988 E-score; for CAGTGTTC, -0.00359 E-score. For TATGTTAA the value was 0.269 E-score; for CCGAACAA, -0.0804 E-score.

Turning to CAGTAACG, the binding signal is 0.112 E-score. The sequence CAGCCGAC returned a binding signal of -0.279 E-score. AGGTAGAT registered a binding signal of 0.359 E-score. For ATTATATC the value was 0.377 E-score; for AACTTCGT, 0.0718 E-score; for AGTTCCCA, -0.096 E-score. AACAGACT returned a binding signal of -0.0964 E-score. In the case of ACGGCCTG it was -0.0914 E-score; in that of ACACGGAT, 0.15 E-score. For CCCGTTGC the value was -0.106 E-score; for ATAAAGGC, -0.0454 E-score; for GCTATTCA, -0.00299 E-score. For the sequence GTATCTGA, the binding signal was -0.0276 E-score. For TAACGCAA the value was 0.276 E-score; for GCATTCCC, -0.31 E-score. Take AAGCTCGG: the binding signal was -0.133 E-score. AATCAAAA displayed a binding signal of 0.072 E-score. In the case of TAGTACTA it was 0.44 E-score; in that of ACCGATGG, -0.2 E-score. For GATGTTCC the value was 0.0427 E-score; for GTGCTAGA, 0.275 E-score. In the case of GGTACAAA it was 0.282 E-score. CGCACTTC displayed a binding signal of -0.15 E-score. CACTCCCG: the binding signal is -0.118 E-score.

The sequence CAAGTTCG gave a binding signal of 0.0316 E-score. ATTAACCG displayed a binding signal of 0.0492 E-score.

For the sequence CAGCATCG, the binding signal is -0.146 E-score. For CCTCGAGA the value was -0.0474 E-score; for ACTGCTAC, 0.217 E-score. In the case of GAGCCTCC it was -0.415 E-score; in that of ATTATAAA, 0.157 E-score. In the case of CTCTGATC it was -0.0643 E-score. In turn, AGATCCGC displayed a binding signal of -0.166 E-score. AGGCGACT showed a binding signal of -0.163 E-score. In the case of AGTCCAAT it was 0.0567 E-score; in that of ACTGACAC, -0.0718 E-score; in that of CCGGGTTC, -0.251 E-score.

GATCTCGC yielded a binding signal of -0.075 E-score. For GTGAGTAA the value was 0.0609 E-score; for ATCGACCA, 0.12 E-score; for ATCTACTG, 0.382 E-score. In the case of ACCTCAGG it was -0.116 E-score; in that of CCTAGGTC, -0.0668 E-score. In the case of AGGAATTA it was 0.101 E-score; in that of ATACGACG, 0.212 E-score. For the sequence CGATTCAG, the binding signal is -0.0766 E-score. Consider ATATCTGA, for which the binding signal amounted to 0.111 E-score. For ACCCAGGT the value was -0.252 E-score; for CGATGCTA, 0.0795 E-score; for AAAATGTT, 0.1 E-score. As for ATGAAAAG, the binding signal is -0.00495 E-score. With ATATGCCA, the binding signal is -0.0946 E-score.

Take CGAGCGCA: the binding signal is -0.0105 E-score. For CGCCGCTA the value was 0.201 E-score; for ACCATCCT, -0.0786 E-score; for ATTATTAA, 0.0696 E-score. In the case of AGGATCCC it was -0.153 E-score. In the case of ATAGAGCG it was -0.00269 E-score. Take AGCCGACC: the binding signal is -0.108 E-score.
